Experimental findings from ChEMBL document CHEMBL4888484, “Replenishing the malaria drug discovery pipeline: Screening and hit evaluation of the MMV Hit Generation Library 1 (HGL1) against asexual blood stage Plasmodium falciparum ,using a nano luciferase reporter read-out” (2022) are described below.

SMILES strings stand for the structures. Hit rate of the full screen: of about 150,000 compounds, about 540 (0.36%) showed an effect of 50% or more. The list shows a part of the results.

The test has as its system Plasmodium falciparum. Briefly: Primary screen in NF54 nanoGlo assay, in single point, at 2uM, 72h; a lower Z score goes with more inhibition. Type of test: functional, Erythrocyte. Conditions: timepoint 72 hour.
For `CC(O)CN(CC(=O)N1CCc2sccc2C1COc1ccccc1)CC1CCCO1` (configuration not stated), the “% Inhibition” value is listed as -11% and the Z score turned out to be 1.2.
The like results for `CN1CCC(N2CCN(Cc3ccc4cc(O)ccc4c3)CC2)CC1` were, in that order, 90% and -8.27.
The like results for `CCc1sc(C(=O)NS(C)(=O)=O)cc1C` were, in that order, -4% and 0.71.
As for `CCc1nccc(-c2c(-c3ccccc3)ncn2CCN2CCOCC2)n1`, the “% Inhibition” value was -6% and the Z score is 0.83.
The like results for `C[C@@H](C(=O)N1CCCC1)S(=O)(=O)c1cccc(Br)c1` were, in that order, 3% and -0.39.
The corresponding values for `COCCNC(=O)c1csc(CN(CCC(c2ccccc2)c2ccccc2)Cc2ccc(Cl)cc2)n1` are 3% and -0.43.
The corresponding values for `CCc1nc(C)cc(N2CCC[C@H](N(C)Cc3ccccn3)CC2)n1` are -12% and 2.
For `O=C(NCc1ccc(Cl)cc1)c1csnn1`, the “% Inhibition” value was -7% and the Z score was 1.17.
The corresponding values for `Cc1cc(C)n(CCNC(=O)c2cnc(-c3ccccc3)nc2)c(=O)n1` are -8% and 1.39.
`Cc1nnsc1C(=O)NCc1cccnc1-c1ccco1`: the “% Inhibition” value was -7% and the Z score was 1.4.
The corresponding values for `C[C@H]1Cc2ccccc2N1C(=O)c1ccc(N2CCOCC2)nc1` are -2% and 0.3.
With `CCCC1(CO)CCN(C[C@H]2CCCN2CC)CC1`, the “% Inhibition” value is -10% and the Z score was 1.23.
For the molecule `C[C@@H]1Oc2ccc(NC(=O)NCc3cnn(C)c3)cc2NC1=O`, the “% Inhibition” value is -8% and the Z score was 0.69.
As to `CN(c1ccccc1NC(=O)c1nccnc1N)C1CCCC1`, the “% Inhibition” value was -2% and the Z score is listed as 0.28.
The corresponding values for `Cc1cccc(-c2noc(N3CCOCC3)c2CN(C(=O)c2cccc(F)c2)C2CC2)c1` are 2% and -0.26.
The like results for `Cn1c(=O)c2c(O)c(Cc3ccccc3)c(O)nc2n(C)c1=O` were, in that order, 2% and -0.33.
Regarding `CCc1nccn1[C@H]1CCCN(CCOc2ccccc2OC)C1`, the “% Inhibition” value came out at 3% and the Z score is -0.63.
As to `CC1(C)CCCC1NC(=O)[C@H]1CCC(=O)N1` (some centres not stated), the “% Inhibition” value is on record as -16% and the Z score amounted to 1.33.
The like results for `COc1cc(-n2cnnn2)ccc1NC(=O)C1CCN(C(C)=O)CC1` were, in that order, -11% and 2.18.
For the molecule `COc1c(C)cc([C@H]2CCc3nc(C(=O)N4CCN(C(c5ccccc5)c5ccccc5)CC4)cn3C2)cc1C`, the “% Inhibition” value is -4% and the Z score is on record as 0.38.
In the case of `Cc1noc(C)c1S(=O)(=O)N1CC(=O)N2CCc3ccccc3[C@@H]2C1`, the “% Inhibition” value was found to be 0% and the Z score was -0.05.
For the molecule `CCCN1CCN(CC(=O)NCC(C)C)c2cc(F)ccc21`, the “% Inhibition” value is reported as -5% and the Z score is listed as 0.93.
The corresponding values for `COc1ccccc1N1CCN(C(=O)C2CCN(c3cc(-n4ccnc4)ncn3)CC2)CC1` are -11% and 2.12.
The corresponding values for `CCN(Cc1ccco1)C(=O)c1ccc(=O)[nH]n1` are 6% and -1.11.
The like results for `Cc1nnc(CN(C)C[C@H](C)N2CCOCC2)s1` were, in that order, 1% and -0.2.
`COc1cc(C(=O)NC2CC2)ccc1OCc1csc(C)n1`: the “% Inhibition” value is reported as -5% and the Z score is 0.96.
The like results for `CO[C@@H](CNC(=O)c1cn(C)nn1)c1ccco1` were, in that order, 16% and -2.05.
For `O=C(C#Cc1ccc2c(c1)OCO2)NC[C@]1(O)CCOC1`, the “% Inhibition” value is recorded as -7% and the Z score was found to be 0.59.
The corresponding values for `Cc1csc(NC(=O)[C@@H]2COCC(=O)N2Cc2ccccc2)n1` are -5% and 0.82.
The like results for `Cc1cnoc1C(=O)OCc1noc(C(C)(C)C)n1` were, in that order, -7% and 1.1.
Regarding `CC(C)c1ncc(C(=O)NC[C@H]2CN(S(C)(=O)=O)CCO2)cn1`, the “% Inhibition” value is -6% and the Z score is 0.98.
The corresponding values for `Cc1cncc(CNC(=O)N2CCCC3(CCOCC3)C2)c1` are -3% and 0.43.
The corresponding values for `COc1ccc([C@@H](NC(=O)c2cnn3ncccc23)C(F)(F)F)cc1F` are -13% and 1.88.
The corresponding values for `Cc1cc(C)n(-c2ccnc(N3CCN(C4CCCCC4)CC3)n2)n1` are -16% and 1.73.
Take `CC[C@H](C)[C@@H]1NC(=O)N(Cc2ccccc2Cn2cccn2)C1=O`: the “% Inhibition” value is -4% and the Z score turned out to be 0.67.
As to `CN(C)C1(CN[C@@H](c2ccccc2)c2ccc(F)cn2)CCOCC1`, the “% Inhibition” value is -2% and the Z score came out at 0.29.
The like results for `O=C1NCCCCCN(C(=O)NC2CCCCC2)[C@@H]2C[C@@H](C(=O)N3CCc4ccccc4C3)C[C@H]12` were, in that order, 5% and -0.68.
Turning to `CS(=O)(=O)c1cccc(C(=O)N2CCC(Oc3nc4c(F)cccc4s3)CC2)c1`, the “% Inhibition” value is listed as -14% and the Z score stood at 2.03.
The like results for `CCCc1nn(C)c(CCC)c1C(=O)NCC(C)C` were, in that order, -8% and 1.3.
`Cc1noc(-c2ccc(OC(F)(F)F)cc2)c1C(=O)NCc1cccc(Cl)c1`: the “% Inhibition” value is recorded as -6% and the Z score came to 0.65.
With `Brc1cc(-c2noc([C@H]3CCCO3)n2)c2ncnn2c1`, the “% Inhibition” value was -9% and the Z score turned out to be 1.62.
For `CC(C)c1nc(NC(=O)COC2CCCC2)n(C)n1`, the “% Inhibition” value is on record as -5% and the Z score is on record as 0.64.
Take `Cc1nc(C2(C)CC2)n(Cc2ccccc2Cl)n1`: the “% Inhibition” value is reported as -12% and the Z score is on record as 2.21.
The corresponding values for `CCN(Cc1noc(C2CCC2)n1)Cc1nccn1C` are 8% and -1.78.
The corresponding values for `O=C(NCc1cccc(C(F)(F)F)c1)c1nc[nH]c1C(=O)NC1CC1` are 14% and -1.58.
On to `Cc1noc(C)c1CN1CC[C@H](NC(=O)c2cc3ccccc3[nH]2)C1`, for which the “% Inhibition” value is on record as -14% and the Z score amounted to 2.5.
With `Cc1c(CNC(=O)CNC(N)=O)oc2ccccc12`, the “% Inhibition” value was found to be 1% and the Z score is on record as -0.28.
The corresponding values for `CC(C)C[C@H](CCO)CNC(=O)CS(=O)(=O)Cc1ccc(Br)cc1` are -1% and 0.14.
The like results for `COc1ccccc1[C@H]1C[C@@H](C)CCN1Cc1cnc2cnccn12` were, in that order, -6% and 0.76.
The like results for `O=C1NCCC[C@@H]1Nc1nccc(C(F)(F)F)n1` were, in that order, -2% and 0.43.
Take `Nc1cc(O)nc(CCNC(=O)c2ccc3nc(-c4ccc(F)cc4)cn3c2)n1`: the “% Inhibition” value is -10% and the Z score is 1.19.
The like results for `Cc1nc(-c2cccs2)sc1CNS(=O)(=O)N(C)C` were, in that order, -3% and 0.52.
The like results for `CC1=Nc2ccccc2C12CCN(C(=O)Nc1cncc(F)c1)CC2` were, in that order, 11% and -1.44.
For `C[C@@H]1NC(=O)N(c2ccccc2NC(=O)CCOc2ccccc2)C1=O`, the “% Inhibition” value turned out to be 5% and the Z score is listed as -0.67.
Take `C=C(C)COc1cccc(C(=O)N2CC[C@H](NC(C)=O)C2)c1`: the “% Inhibition” value is -4% and the Z score amounted to 0.57.
As to `C[C@@H](CCc1ccc(F)c(F)c1)NC(=O)C(C)(C)O`, the “% Inhibition” value turned out to be 4% and the Z score was -0.49.
The corresponding values for `CC(C)c1nnc(NC(=O)C2Oc3ccccc3C2C)[nH]1` (configuration not stated) are -7% and 0.99.
The like results for `COc1cn(CC(=O)NCc2ccc3c(c2)OCO3)c(CN2CCCCC2)cc1=O` were, in that order, -6% and 1.05.
The corresponding values for `COc1ccc2nc(NC(=O)[C@H]3CCCN(C(=O)C(C)C)C3)sc2c1` are -13% and 1.89.
On to `O=C(Cn1c(C2CCCCC2)nc2ccccc21)Nc1nnc[nH]1`, for which the “% Inhibition” value is on record as -1% and the Z score was 0.21.
Consider `OC(CN1CCCC1C1CCCCC1)Cn1cccn1` (configuration not stated), for which the “% Inhibition” value is reported as 1% and the Z score is listed as -0.1.
The corresponding values for `O=C1CC[C@]2(CNC(=O)c3ccncc3)CCCC=C2N1` are 8% and -1.2.
Regarding `Cc1c(C)[n+]([O-])c([C@@H](c2ccc(O)cc2)C2C(=O)OC(C)(C)OC2=O)n1C`, the “% Inhibition” value is listed as -11% and the Z score is listed as 1.46.
In the case of `COCCNC(=O)C(=O)NCc1ccc(C)cc1`, the “% Inhibition” value is listed as -5% and the Z score turned out to be 0.71.
The like results for `CC(C)(C)c1cc([C@H]2CC(O)=Nc3c2c(=O)[nH]n3C2CCOCC2)cc(C(C)(C)C)c1O` were, in that order, -11% and 1.22.
For the molecule `CCC[C@H](C)C(=O)Nc1ccc(C)cc1`, the “% Inhibition” value is -8% and the Z score is on record as 1.05.
The corresponding values for `CCCOC1(CNC(=O)c2cnn(C)c2)CCCCC1` are 5% and -0.72.
The like results for `CC(C)n1ccc(-c2nc(CC(N)=O)nn2CC(F)(F)F)n1` were, in that order, -14% and 1.4.
The like results for `O=C(NCc1ncccn1)NC[C@H]1C[C@@H]1C1CCCCC1` were, in that order, -6% and 0.92.
`CN1CCO[C@@H]2CN(Cc3ccccc3OC3CC3)C[C@@H]21`: the “% Inhibition” value is on record as 8% and the Z score is listed as -1.02.
As to `Cc1ccccc1CC(C)(C)NC(=O)[C@H]1CC12CCS(=O)(=O)CC2`, the “% Inhibition” value came to 1% and the Z score was -0.07.
Regarding `CC[C@H]1CN(S(=O)(=O)c2ccc(OC)cc2)CC[C@H]1CC(=O)N(C)CC#N`, the “% Inhibition” value is listed as -15% and the Z score was 2.37.
For the molecule `Cc1cc(C)n2ncc(CN(CCO)Cc3ccc(F)cc3)c2n1`, the “% Inhibition” value is 3% and the Z score is -0.55.
On to `CCCn1ccnc1CCCN(C)C(=O)C1CC1c1ccccc1C(F)(F)F` (configuration not stated), for which the “% Inhibition” value came out at 5% and the Z score is recorded as -0.58.
With `Cc1csc(N(CC(F)(F)F)C(=O)c2ccc(C)o2)n1`, the “% Inhibition” value amounted to 1% and the Z score is on record as -0.15.
The like results for `COC(=O)[C@@H]1Cc2ccc(O)cc2CN1C(=O)CN(C)C(C)=O` were, in that order, -10% and 2.02.
The corresponding values for `C[C@@H](c1ccc(Cl)c(Cl)c1)N(C)Cc1nc(C(=O)O)co1` are -13% and 1.39.
With `Fc1ccc2nc([C@H]3CCCN(Cc4ncccc4Cl)C3)oc2c1`, the “% Inhibition” value amounted to 7% and the Z score is recorded as -1.3.
On to `CCN(CCS(N)(=O)=O)[C@@H](C)c1cccc(OC)c1`, for which the “% Inhibition” value is -6% and the Z score was determined as 0.56.
`Cc1nc2c(-c3ccncc3)nsc2c(=O)n1CC(=O)Nc1ccc2c(c1)OCO2`: the “% Inhibition” value is listed as 2% and the Z score is given as -0.27.
The corresponding values for `CCC1CN(CC(C)(C)O)C(CC)CN1CC(=O)Nc1cc(OC)cc(OC)c1` (configuration not stated) are -14% and 1.29.
The corresponding values for `NC(=O)C1CCCC1NC(=O)C1COc2ccccc21` (configuration not stated) are -10% and 1.37.
The like results for `CCCN1C[C@@H](Nc2cc(-c3ccccc3F)nc3ccnn23)CC1=O` were, in that order, -11% and 1.34.
Regarding `COc1ccc(C2CN(Cc3cc(C)c(C)o3)CC2CN(Cc2ccc(F)cc2)C(C)=O)cc1` (configuration not stated), the “% Inhibition” value was found to be 2% and the Z score was -0.2.
With `COc1ccc(-c2n[nH]c3c2cnc2ccc(F)cc23)cc1`, the “% Inhibition” value is reported as -11% and the Z score stood at 1.01.
Consider `CC(C)CN(CC(N)=O)CC1=CCCOC1`, for which the “% Inhibition” value was -2% and the Z score came out at 0.27.
